The other results are listed elsewhere or left out.

These results are taken from the supplement of paper PMC3724861.

In the assay the test system is T1, Caupolican (Caup) homeodomain DNA-binding domain.
T1 sequence: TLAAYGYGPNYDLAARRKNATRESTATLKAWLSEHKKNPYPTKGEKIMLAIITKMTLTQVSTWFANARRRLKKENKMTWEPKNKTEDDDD
Put plainly: PBM E-score (8-mer, recovered from the published 9-mer minima) (E-score (dimensionless, -0.5 to 0.5)); Drosophila protein; higher = stronger relative binding preference, active = 0.31 or more. The essentials:
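An enrichment score, with higher meaning stronger, expresses relative binding preference for each short DNA word. The protein used was Caup's homeodomain DNA-binding domain (residues 214-303), produced by in vitro transcription and translation and tested at 100 nM on custom-designed protein binding microarrays. The 8-mer values were recovered from published 9-mer scores, each equal to the lower of its two constituent 8-mer scores.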
Turning to CACAGGCC, the “PBM E-score” value is inactive: -0.0917. Turning to GAGCGGGA, the “PBM E-score” value is inactive: -0.184.

Take TCATTGAA: the “PBM E-score” value is inactive: 0.133. In the case of CTGGAATC, the “PBM E-score” value was inactive: 0.00521.

With CATTTCGA, the “PBM E-score” value was inactive: 0.0622. In the case of CATCTGGC, the “PBM E-score” value was inactive: -0.134. AAATTATA: the “PBM E-score” value was inactive: 0.088.

Turning to TAGAATAA, the “PBM E-score” value is inactive: 0.174. For the sequence CATAGCCC, the “PBM E-score” value is inactive: -0.0328. The result for ATAAACTG reads inactive: 0.0488; that for CTTTAACC, inactive: -0.0171. For AACTATGC, the “PBM E-score” value was inactive: 0.0512. Turning to AAGCCAAA, the “PBM E-score” value was inactive: -0.0704. The result for ACGTTGAG reads inactive: 0.0174. As to CCGGAAGG, the “PBM E-score” value is inactive: -0.241. The result for CCTGAGTA reads inactive: 0.00143; that for AATTAAGC, inactive: 0.0235; that for CTTGGTGA, inactive: -0.106. The result for GAATAAGA reads inactive: 0.0109.

Regarding CTGGCCGC, the “PBM E-score” value is ≥ -0.177. The result for CTCAGTAA reads inactive: -0.00161; that for AGCGATGG, inactive: -0.192; that for AAGACTGA, inactive: 0.0567.

In the case of CCGAAAAC, the “PBM E-score” value was inactive: -0.0316.

For GAGACTAC, the “PBM E-score” value is inactive: -0.0245. Take ACATACAG: the “PBM E-score” value is inactive: 0.247. On to GTACTAAC, for which the “PBM E-score” value is inactive: 0.192. For CATCAAGG, the “PBM E-score” value was inactive: -0.0295. Consider CCAATTAC, for which the “PBM E-score” value was inactive: 0.119. Regarding GTCGCTGA, the “PBM E-score” value was inactive: 0.0108. For GACCACAA, the “PBM E-score” value is inactive: -8e-05. In the case of AATGGTAG, the “PBM E-score” value is inactive: 0.131. Regarding CTCCGTGA, the “PBM E-score” value was inactive: -0.0581. The result for ACCTACAG reads inactive: 0.0545. Take GCATCTTA: the “PBM E-score” value was inactive: 0.0716. Take AACCCCCC: the “PBM E-score” value was inactive: -0.293. ATGCCCCC: the “PBM E-score” value was inactive: -0.24. For the sequence CGCAGAGC, the “PBM E-score” value is inactive: -0.14.

Consider CTAACTGC, for which the “PBM E-score” value is inactive: -0.0985.

For the sequence GTCCTTGA, the “PBM E-score” value was inactive: 0.0017. The result for AAAAGCGA reads inactive: 0.00198; that for CATCGTGC, inactive: 0.0673; that for AACCGTCG, inactive: -0.0221.

Take CCTATGCG: the “PBM E-score” value was inactive: -0.0298. The result for ATCCCGCA reads ≥ -0.0491; that for CGGAGCCA, inactive: -0.23. Turning to CCATTACA, the “PBM E-score” value was inactive: 0.259. For GAGGGCAC, the “PBM E-score” value is inactive: -0.183. On to GCTTAGGA, for which the “PBM E-score” value is inactive: -0.0742. The value for ATTATAAG was inactive: 0.0375; that for CAATATCG was inactive: 0.0696. With AGCCCCCC, the “PBM E-score” value was inactive: -0.338. As for ACGGCAAA, the “PBM E-score” value is inactive: 0.0766. On to ACCCTTTA, for which the “PBM E-score” value was inactive: -0.00288.

For the sequence GTGAATGA, the “PBM E-score” value was inactive: 0.1. For the sequence CAGACTGC, the “PBM E-score” value is inactive: -0.0434. For AAGGTACG, the “PBM E-score” value was inactive: 0.0801.

In the case of ACTTTGGG, the “PBM E-score” value was inactive: -0.0934. The value for GCCGGGCA was inactive: -0.327; that for AGAGATAG was inactive: -0.0252.

For the sequence ATACTTGA, the “PBM E-score” value was inactive: 0.203.

Regarding AACCCCTA, the “PBM E-score” value is inactive: -0.118. In the case of GCCAGCGC, the “PBM E-score” value is inactive: -0.273. In the case of ACAATTAC, the “PBM E-score” value is inactive: 0.251. As for TCTAAGAA, the “PBM E-score” value is inactive: 0.0455. As for ACTCGTAG, the “PBM E-score” value was inactive: 0.0446.

For AGACCGCG, the “PBM E-score” value is ≥ -0.0645.

GAAAATGC: the “PBM E-score” value is inactive: -0.0074. As to AGTCAGAC, the “PBM E-score” value is inactive: -0.0283.

Consider ATCAACGG, for which the “PBM E-score” value is inactive: 0.00112. The value for AGCCGATC was inactive: -0.0478; that for CAGATACC was inactive: 0.0195; that for CCTATCAG was inactive: -0.029. As to ACTGGTTG, the “PBM E-score” value was inactive: 0.0109. The value for AGAGCCTG was inactive: -0.0589; that for GCAATGCA was inactive: 0.0191.

Consider CGTGGTAA, for which the “PBM E-score” value was ≥ 0.159. Turning to ATGTTTCG, the “PBM E-score” value is inactive: 0.173. The value for ATTTGTGC was inactive: 0.0549; that for CCACCTGG was inactive: -0.113; that for ACCGCTAT was inactive: -0.0581. The result for TAAGGAGA reads inactive: -0.0521. Regarding CCCTTGAA, the “PBM E-score” value was inactive: -0.0597.

For ATCCACCG, the “PBM E-score” value was inactive: -0.0335.

With CAGTTTGG, the “PBM E-score” value was inactive: -0.0942. With GCGTGAGC, the “PBM E-score” value was inactive: -0.149. Regarding GTCCACCA, the “PBM E-score” value was inactive: -0.0287.

As for CCTCTTTC, the “PBM E-score” value is inactive: -0.127. CGATATGC: the “PBM E-score” value is inactive: 0.0375. Regarding GGTTCTAA, the “PBM E-score” value was inactive: -0.0345. Regarding CATTACAC, the “PBM E-score” value is active: 0.311. Consider CATTCTGG, for which the “PBM E-score” value is inactive: -0.0669. The result for CTGAAGGA reads inactive: -0.173. With AAGTGGCG, the “PBM E-score” value is ≥ -0.0381. As to CTCTAACA, the “PBM E-score” value was inactive: 0.152. In the case of GCTCGTGA, the “PBM E-score” value is inactive: -0.064. As to ACCACGAT, the “PBM E-score” value is ≥ 0.148. The value for AATTCTTC was inactive: -0.0448; that for CTCTAGTA was inactive: 0.126. In the case of AGTAGTCC, the “PBM E-score” value was inactive: -0.0227. The result for TACACTCA reads ≥ 0.179; that for GGGGCGGA, inactive: -0.329; that for ATGTCGAA, inactive: 0.291.

Regarding CATCCGGA, the “PBM E-score” value is inactive: -0.00251.

With ACCCACCA, the “PBM E-score” value is inactive: -0.0814.

In the case of CCTCGGTC, the “PBM E-score” value was inactive: -0.135. Consider CTTAGAAC, for which the “PBM E-score” value is inactive: -0.00381.

Turning to CATTAGAG, the “PBM E-score” value is inactive: -0.0558. With AGACTCAA, the “PBM E-score” value was inactive: 0.0337.

Regarding CTAAAACA, the “PBM E-score” value is inactive: 0.191. The value for AATGAATG was inactive: 0.169. Turning to CGAATGGA, the “PBM E-score” value is ≥ 0.0344.
